# Source: article PMC6212790
# Some of the results follow. At the low end of the ranking, values are background and their order means little.
# Molecular target: T1, GST-Rok-C97-191 (UniProt O34857)
# T1 sequence: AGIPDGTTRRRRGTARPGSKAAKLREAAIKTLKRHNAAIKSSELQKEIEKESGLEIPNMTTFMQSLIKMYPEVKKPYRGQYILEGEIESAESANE
# Assay: protein binding microarray;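 note: rank score from −0.5 (least bound) to 0.5 (best bound)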
# Conditions: Rok is a gene silencer of Bacillus subtilis; high values mean tight binding; most listed sequences are background and not binding sites; double strand, one strand shown
row,Sequence,binding signal
1,CACCATGG,-0.115 E-score
2,GAAACAGC,-0.0502 E-score
3,CTTAAGTA,0.197 E-score
4,ACCCATCA,-0.182 E-score
5,CACGTCTG,-0.111 E-score
6,GGTTTTGA,0.0578 E-score
7,ATCGATGA,0.215 E-score
8,CCAGCCCG,-0.295 E-score
9,CGGCACTA,0.0999 E-score
10,CCTGTTCA,-0.198 E-score
11,GTTGTGAA,0.0836 E-score
12,TCTGATCA,0.102 E-score
13,AGGTGTGG,-0.0866 E-score
14,GTGCCAAA,-0.0299 E-score
15,GACCGCAC,-0.11 E-score
16,GTAGGTTA,0.251 E-score
17,CATTCTGA,-0.0618 E-score
18,GGGTCTAC,-0.137 E-score
19,CGCTTAAC,0.0587 E-score
20,ATTCTCAG,-0.0354 E-score
21,ACCTTAAA,0.023 E-score
22,ACGTTTGC,-0.0306 E-score
23,ACGTAACT,0.168 E-score
24,CCGAGTAC,-0.0881 E-score
25,GTCCCATA,-0.123 E-score

row,Sequence,binding signal
1,CAGGTCAC,-0.123 E-score
2,GATACGAC,0.0623 E-score
3,AAAACGAA,-0.0738 E-score
4,ATAAGTAG,0.307 E-score
5,GCGACCCA,0.134 E-score
6,CATCGTGC,-0.0416 E-score
7,AACTAAGA,0.223 E-score
8,CATCGTCA,-0.0281 E-score
9,GCACGGGC,-0.193 E-score
10,GCCGATGA,-0.145 E-score
11,ATATAGAA,0.347 E-score
12,AGTGGCCG,-0.0389 E-score
13,GAACACTA,-0.146 E-score
14,CGCTTGGA,-0.24 E-score
15,AATAATCT,0.0918 E-score
16,CTTTGTGC,-0.229 E-score
17,CAAGCGTC,-0.148 E-score
18,CGCTGCAG,-0.286 E-score
19,CTCCTGTC,-0.234 E-score
20,TACTGAGA,0.0745 E-score
21,CCTGAAAC,-0.0142 E-score
22,ACGGTATA,0.215 E-score
23,AAGCGGAC,-0.0303 E-score
24,AGTCACGA,-0.102 E-score
25,CGTCCTAG,-0.269 E-score

row,Sequence,binding signal
1,ATTCGCCG,-0.0321 E-score
2,CTGCCCAA,-0.00161 E-score
3,GTCCGCTA,-0.0907 E-score
4,CCGGCCAA,-0.177 E-score
5,TACGCCAA,-0.125 E-score
6,ATAACTAG,0.232 E-score
7,CTCACTCA,-0.0724 E-score
8,CGCTCTGC,-0.0463 E-score
9,TCACAAAA,0.0113 E-score
10,GCCGTTCA,-0.0643 E-score
11,GCCGTTAC,-0.0424 E-score
12,ACAGGGTA,0.0816 E-score
13,GAGGTCGC,-0.134 E-score
14,CCTCAAAG,-0.109 E-score
15,ATACGAAT,0.17 E-score
16,CTGGTCAC,-0.286 E-score
17,AGCGCGTG,-0.0766 E-score
18,TGAGCCCA,-0.168 E-score
19,CCTATATC,0.0424 E-score
20,TCAGTTAA,0.249 E-score
21,CATCTATC,0.201 E-score
22,CTGGCCAG,-0.116 E-score
23,ATCGATGC,-0.00344 E-score
24,GATTTCGA,0.12 E-score
25,CGGACGCC,-0.19 E-score

row,Sequence,binding signal
1,ATTTTCAG,0.139 E-score
2,TCATAAAA,0.247 E-score
3,CACGCCAC,-0.134 E-score
4,ACAGTCGT,-0.144 E-score
5,CTGTTCAC,-0.0918 E-score
6,ACGACAAA,-0.00941 E-score
7,GAGCGAAA,-0.0321 E-score
8,CCTCGTAC,-0.195 E-score
9,GATGACAA,0.0961 E-score
10,GATATCTA,0.349 E-score
11,CTACGGAC,0.00996 E-score
12,CCATGTAA,0.197 E-score
13,CCAAAGGG,-0.296 E-score
14,CGTCAACC,-0.182 E-score
15,GCATGGGC,-0.148 E-score
16,AGATATAC,0.221 E-score
17,AACACTGG,-0.223 E-score
18,TATAGGCA,0.122 E-score
19,AGATTATG,0.0174 E-score
20,CCTGGGAC,-0.234 E-score
21,GGCAGATA,-0.104 E-score
22,ACTAAGCG,-0.208 E-score
23,ATAAAACG,0.145 E-score
24,GGTGCGTA,-0.145 E-score
25,ACATGCAC,-0.00337 E-score

row,Sequence,binding signal
1,ATTCTTCG,0.121 E-score
2,CTCGACGA,-0.162 E-score
3,GGCCTAAA,0.0804 E-score
4,ATCAAATA,0.253 E-score
5,TCCCGCCA,-0.174 E-score
6,CTCGAAGC,-0.3 E-score
7,ATTGATTC,0.0769 E-score
8,CGAAGTAG,0.178 E-score
9,ATACTCGA,0.0581 E-score
10,GAGGCCGA,-0.261 E-score
11,ATATAAAC,0.33 E-score
12,AGACAGCA,-0.162 E-score
13,AATGCATG,-0.0091 E-score
14,AATCTGGG,-0.0558 E-score
15,ATCGAAGA,-0.0976 E-score
16,AGATCAGC,-0.131 E-score
17,CTAAGAAC,-0.119 E-score
18,ATCTTCGC,0.0663 E-score
19,TATGACGA,0.0683 E-score
20,AATGTATC,0.187 E-score
21,CTAATGTC,-0.0106 E-score
22,AGGCGGGG,-0.355 E-score
23,AAGTTCGA,0.212 E-score
24,GCATAGCC,0.0124 E-score
25,AGACATGA,-0.06 E-score

row,Sequence,binding signal
1,AGTCGGTA,0.234 E-score
2,AGAGCCGC,-0.24 E-score
3,AGGGCAGC,-0.373 E-score
4,CAGCAGCC,-0.253 E-score
5,CAAGTACC,0.181 E-score
6,CTCGCTAA,-0.0252 E-score
7,AAGATTGT,0.117 E-score
8,ATCTAATC,0.295 E-score
9,AGAAACAC,0.0474 E-score
10,CTCCTAGA,0.0946 E-score
11,CAACTTGA,0.0158 E-score
12,AAATAAAG,0.139 E-score
13,CGTCTGCC,-0.352 E-score
14,GCATCAGC,0.00667 E-score
15,GTGCTTAA,0.0496 E-score
16,ATAGCAAA,0.198 E-score
17,CACATACC,0.242 E-score
18,GCCAATTA,0.0747 E-score
19,GCTAATAC,0.28 E-score
20,ACGGTATG,0.136 E-score
21,GGTATTTA,0.342 E-score
22,CCTGGCTC,-0.282 E-score
23,TAAAACTA,0.334 E-score
24,GAGTTCCC,-0.111 E-score
25,GGCTTCAC,-0.253 E-score

row,Sequence,binding signal
1,AAGCTCGT,-0.196 E-score
2,CATCCCCG,-0.113 E-score
3,ATATATCG,0.366 E-score
4,CGATTCTC,0.0356 E-score
5,CTGGCACC,-0.215 E-score
6,GGCAGGAA,0.121 E-score
7,CCCGAGGC,-0.134 E-score
8,AACAACTC,0.0751 E-score
9,AACACGAA,-0.00671 E-score
10,CCATTCGC,-0.108 E-score
11,GATTTCAA,0.0221 E-score
12,CCACCTGA,-0.268 E-score
13,AGTTTAAT,0.112 E-score
14,AAAGATTG,0.105 E-score
15,GAGACAAC,-0.0419 E-score
16,CACACGGC,-0.207 E-score
17,CTAAGCAC,0.0468 E-score
18,AAATGGTA,0.304 E-score
19,AGAACTAT,0.268 E-score
20,AATTACGC,0.134 E-score
21,ACCTCAAT,0.0517 E-score
22,TAACGGCA,-0.0744 E-score
